# Measurements as given in PubChem BioAssay AID485294 (National Center for Advancing Translational Sciences (NCATS), 2010).
# In all, about 370,000 compounds went through this assay and about 150 (0.041%) were called active. Inconclusive means that the source gave no clear call. Such entries were picked first, then a sample of the others. The call rests on the fitted dose curve; in most records, active means well fitted inhibition curve with a large enough effect; inconclusive means small, poorly fitted or top-dose-only effect; inactive means flat fitted curve, though single readings scatter. Potencies of inconclusive entries are left out as doubtful fits.
# Target: Beta-lactamase (Escherichia coli (strain K12)) (UniProt P00811)
# Test: qHTS Inhibitors of AmpC Beta-Lactamase (assay with detergent); further: nearly all actives have a fitted effect of over 25% in size
# Details: AmpC hydrolysis of nitrocefin, absorbance 480 nm, 0.01% Triton; series mostly up to 114 µM
# Procedure, shortened: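 AmpC (5.3 nM in the dispensed reagent) in 20 mM phosphate pH 7.0 with 0.01% (detergent screen) or 0.0001% Triton X-100 was preincubated with compounds for 15 min at room temperature. Nitrocefin was then added from an 800 uM solution, and hydrolysis was followed at 480 nm.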
# Potency means the concentration at half of the fitted maximal effect; tags describe the fitted curve by direction and shape.
# Sequence of UniProt P00811 (P00811 whole entry, looked up): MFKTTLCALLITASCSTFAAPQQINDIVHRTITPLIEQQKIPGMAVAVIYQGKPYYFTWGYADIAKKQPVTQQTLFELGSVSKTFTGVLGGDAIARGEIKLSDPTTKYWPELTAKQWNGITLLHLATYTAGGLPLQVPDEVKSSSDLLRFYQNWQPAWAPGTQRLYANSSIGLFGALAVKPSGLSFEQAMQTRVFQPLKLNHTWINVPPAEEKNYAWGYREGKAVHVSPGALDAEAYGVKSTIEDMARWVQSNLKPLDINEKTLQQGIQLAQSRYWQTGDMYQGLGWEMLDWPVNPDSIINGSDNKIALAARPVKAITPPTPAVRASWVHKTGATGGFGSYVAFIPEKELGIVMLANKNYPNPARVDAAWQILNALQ
row,SMILES,Potency
1,COC(=O)c1ccccc1NC(=O)CSc1nc(NC(=O)c2ccccc2)c2c(C)c(C)oc2n1,"inconclusive [inhibitor, full curve, poor fit]"
2,COc1cc(/C=N/NC(=O)C(=O)NCc2cccnc2)cc(OC)c1OC,"inconclusive [inhibitor, partial curve, poor fit]"
3,CCc1ccccc1NC(=O)c1ccc2c(SCC(=O)O)c3c(nc2c1)CCC3,inactive
4,Cc1ccc(-c2c(C#N)c(N)nc3c2CCCCC3)cc1,"inconclusive [inhibitor, full curve, poor fit]"
5,O=C(CC(c1ccccc1)c1ccccc1)NCCOCc1ccccc1,"inconclusive [inhibitor, full curve, poor fit]"
6,CC1CN(S(=O)(=O)c2cccc(C(=O)OCC(=O)Nc3ccc4c(c3)OCO4)c2)CC(C)O1 (centres undefined),"inconclusive [inhibitor, full curve]"
7,CCn1c(C(=O)N2CCC(C(=O)N3CCC4(CC3)OCCO4)CC2)cc2sccc21,"inconclusive [inhibitor, single point]"
8,COc1ccc(CN2CCN(CCCCOc3ccc(Cl)cc3)CC2)c(OC)c1OC,"inconclusive [inhibitor, full curve, poor fit]"
9,C=CCOc1c(Cl)cc(CNCCC)cc1Cl,"inconclusive [inhibitor, full curve, poor fit]"
10,CS(=O)(=O)Nc1ccc(C2=NN(S(C)(=O)=O)C(c3ccccc3)C2)cc1 (centres undefined),"inconclusive [inhibitor, full curve, poor fit]"
11,COc1ccc(-c2cc3n(n2)CCc2nc4ccccc4n2-3)cc1,"inconclusive [inhibitor, full curve, poor fit]"
12,COc1ccc(N/C=C/C(=O)c2ccccc2)cc1,inactive
13,O=C(Nc1cccc2ccccc12)/C(=C/c1ccc([N+](=O)[O-])cc1)NC(=O)c1ccccc1,inactive
14,NC(=O)CC(NC(=O)c1ccccc1)c1ccc(N2CCCCCC2)c([N+](=O)[O-])c1 (centres undefined),"inconclusive [inhibitor, partial curve]"
15,O=C(CS(=O)c1ccc(C(F)(F)F)cc1[N+](=O)[O-])Oc1ccc(Cl)cc1 (centres undefined),"inconclusive [inhibitor, partial curve, poor fit]"
16,O=C(NCCS(=O)(=O)N1CCN(c2ccc(F)cc2)CC1)c1cccc(C(F)(F)F)c1,"inconclusive [inhibitor, full curve, poor fit]"
17,COc1ccc2c(c1)c1c(c(=O)n(-c3ccc(OC)c(OC)c3)c(=O)n1Cc1ccccc1F)n2C,inactive
18,CCN(CC)S(=O)(=O)c1ccc2c(c1)c(=O)c(C(=O)NCc1cccs1)cn2C,"inconclusive [inhibitor, partial curve]"
19,Cc1ccccc1-n1cc(CNCc2c(C(=O)N(C)C)nc3ccc(Cl)cn23)cn1,inactive
20,Cc1ccc(NS(=O)(=O)c2cc(NC(=O)c3cc4c(s3)CCCC4)ccc2C)c(C)c1,inactive
21,O=C(NCc1cccc(Cl)c1)C1CCCO1 (centres undefined),"inconclusive [inhibitor, full curve]"
22,CCc1nc(SCC(=O)N2CCN(c3ccccc3)CC2)c2oc3ccccc3c2n1,inactive

row,SMILES,Potency
1,CC(=O)c1nn(-c2cccc(Br)c2)cc1C(=O)c1ccccc1,"inconclusive [inhibitor, full curve, poor fit]"
2,O=S(=O)(NC1=NCCCCC1)c1ccc(Cl)cc1,"inconclusive [inhibitor, full curve, poor fit]"
3,Cc1ccc(NC(=O)c2cc(C)nc3ccccc23)c(Br)c1,"inconclusive [inhibitor, full curve, poor fit]"
4,Cc1cc2c(c(=O)n1Cc1ccccc1)C1O[C@](CCCCN3C(=O)c4ccccc4C3=O)(Cc3ccccc31)O2,"inconclusive [inhibitor, partial curve]"
5,Cc1[nH]c2ccccc2c1C(c1ccncc1)N1CCC(C)CC1 (centres undefined),inactive
6,Cc1ccc(Cl)cc1N1CCN(C(=O)CCCn2c(=O)[nH]c3ccc(Br)cc3c2=O)CC1,inactive
7,Cc1csc(NC(=O)CSc2nnc(-c3ccccn3)n2-c2ccc(C)c(C)c2)n1,"inconclusive [inhibitor, partial curve, poor fit]"
8,Cc1ccn2c(NCc3ccc4c(c3)OCO4)c(-c3ccc(O)cc3)nc2c1,"inconclusive [inhibitor, single point]"
9,Cc1ccc(S(=O)(=O)N2CCOC2CNC(=O)C(=O)NCc2ccco2)cc1 (centres undefined),"inconclusive [inhibitor, partial curve]"
10,C=CCN(C(=O)c1cccc(S(=O)(=O)N2CCN(C)CC2)c1)c1nc(-c2ccccc2)cs1,"inconclusive [inhibitor, single point]"
11,COc1ccc2c(c1OC)C(=O)N1C2SC[C@H]1C(=O)NC1CCCCC1 (some centres undefined),"inconclusive [inhibitor, partial curve]"
12,COc1ccc(-n2c(SCC(=O)Nc3cccc(C)c3C)nc3c([nH]c4ccccc43)c2=O)cc1,inactive
13,O=C(CSc1nnc(-c2ccncc2)n1Cc1ccco1)OC1CCCCC1,inactive
14,Cc1ccc(C(=O)Nc2cccc(Oc3ccccc3)c2)o1,"inconclusive [inhibitor, full curve, poor fit]"
15,O=C(c1ccccc1)N1CCN(C(=S)NCc2ccc3c(c2)OCO3)CC1,"inconclusive [inhibitor, full curve, poor fit]"
16,CN(C)c1ccc(-c2nnc3n(Cc4ccccc4)c(=O)c4ccccc4n23)cc1,inactive
17,Cc1cc(C)n2nc(/C(C#N)=C/c3ccccn3)c(C#N)c2n1,"inconclusive [inhibitor, partial curve, poor fit]"
18,CNS(=O)(=O)c1cc(O)c2c(S(=O)(=O)NC)cccc2c1,inactive
19,Cc1cc(C)n(/N=C/c2cc(Cl)cc(Cl)c2O)c(=O)c1,"inconclusive [inhibitor, partial curve]"
20,CCC(=O)C1=C(c2ccc(OC)c(OC)c2)N(C(=O)CC)n2c(CC)nnc2S1,inactive
21,N#Cc1ccsc1NC(=O)C1CCCN1S(=O)(=O)c1cccs1 (centres undefined),"inconclusive [inhibitor, partial curve, poor fit]"
22,COc1ccc(S(=O)(=O)N(NC2=NS(=O)(=O)c3ccccc32)C(=O)C(C)C)cc1,inactive

row,SMILES,Potency
1,Cc1ccc(CNC(=O)CN(C(=O)N2CCN(C)CC2)S(=O)(=O)c2ccc(C)cc2)cc1,"inconclusive [inhibitor, full curve, poor fit]"
2,CN(C)c1nc(Cl)nc(N(C#N)CCOc2ccccc2)n1,"inconclusive [inhibitor, full curve]"
3,O=C(NCC1CCCO1)c1sc(=S)n2c1[nH]c(=O)c1ccc(C(=O)N3CCCCC3)cc12 (centres undefined),"inconclusive [inhibitor, partial curve, poor fit]"
4,COc1ccccc1C(=O)Nc1ccc(Cc2ccncc2)cc1,"inconclusive [inhibitor, full curve, poor fit]"
5,CCCN(CC1CC1)C(=O)COC(=O)c1oc2c(F)cccc2c1C,"inconclusive [inhibitor, full curve, poor fit]"
6,COC(=O)c1ccc(Cl)c(NC(C)=O)c1,"inconclusive [inhibitor, full curve, poor fit]"
7,O=[N+]([O-])c1ccc(S(=O)(=O)NCC(c2ccco2)N2CCc3ccccc3C2)cc1 (centres undefined),"inconclusive [inhibitor, partial curve, poor fit]"
8,COc1ccc(C#Cc2ccc3c(=O)c4ccccc4n(C)c3c2)cc1,inactive
9,COc1ccc(Cn2c(/C=C/c3ccccc3)nc3ccccc32)cc1,inactive
10,CCOC(=O)C1CCCN(Cc2nc3ccc([N+](=O)[O-])cc3c(=O)n2-c2ccc(OC)cc2OC)C1 (centres undefined),inactive
11,CC(c1cccs1)N(C(=O)Nc1ccccc1)C1CCCCC1 (centres undefined),"inconclusive [inhibitor, single point]"
12,O=c1c2ccccc2nc(-c2ccccc2)n1Cc1ccco1,"inconclusive [inhibitor, partial curve, poor fit]"
13,COc1ccc(-c2csc(-c3ccc(C(=O)O)cc3)n2)cc1,inactive
14,COc1ccc(C2=NN(C(=O)c3ccc(Cl)c([N+](=O)[O-])c3)C(c3ccccc3)C2)cc1 (centres undefined),inactive
15,OCCN(Cc1ccccc1)CC(O)COc1ccc(-c2ccccc2)cc1 (centres undefined),"inconclusive [inhibitor, partial curve, poor fit]"
16,COc1cc(OC)cc(C(=O)NNC(=O)CN2C(=O)NC(C)(c3ccc(C)cc3)C2=O)c1 (centres undefined),"inconclusive [inhibitor, full curve, poor fit]"
17,NC(=O)[C@@H]1CCCNc2c(I)cc([N+](=O)[O-])cc2C(=O)N[C@@H](CCC(=O)O)C(=O)N[C@@H](CO)C(=O)N1,"inconclusive [inhibitor, partial curve, poor fit]"
18,CCCN(CCC)C(=O)c1ccc2c(c1)N(Cc1ccccc1)C(=O)CS2=O (centres undefined),"inconclusive [inhibitor, full curve, poor fit]"
19,CCN(CC)C(=O)CSc1nc2cc3c(cc2c(=O)n1Cc1ccc(OC)cc1)OCO3,inactive
20,O=c1/c(=C\c2cccnc2)sc2nc3ccccc3n12,"inconclusive [inhibitor, full curve, poor fit]"
